In the assay the target is His-RPS14 (human, UniProt P62263). Briefly: pull-down.

B1: GST-MDM2/[…] (domain or fragment)
chain: MCNTNMSVPTDGAVTTSQIPASEQETLVRPKPLLLKLLKSVGAQKDTYTMKEVLFYLGQYIMTKRLYDEKQQHIVYCSNDLLGDLFGVPSFSVKEHRKIYTMIYRNLVVVNQQESSDSGTSVSENRCHLEGGSDQKDLVQELQEEKPSSSHLVSRPSTSSRRRAISETEENSDELSGERQRKRHKSDSISLSFDESLALCVIREICCERSSSSESTGTPSNPDLDAGV[omitted - about 80 residues]
Regarding B1, the binding result is “binds”.

The record behind these values is article PMC3736832 (Oncogene, 2012).
